Data taken from PubChem BioAssay AID588855 (National Center for Advancing Translational Sciences (NCATS), 2011).
About 5,000 (1.2%) of roughly 410,000 compounds were called active. Inconclusive results, whose numbers are uncertain, are shown with a selection of clear calls. Calls follow the shape of the dose curve; as a rule, active = well fitted inhibition curve with a large enough effect; inconclusive = small, poorly fitted or top-dose-only effect; inactive = no such curve, though single readings can be large or run the other way. A potency beside an inconclusive call is a rough fit, not a confirmed value.

Test: qHTS for Inhibitors of TGF-b; also: nearly all actives have a fitted effect of over 65% in size
Details: HepG2 CAGA-GFP TGF-b/SMAD3 reporter, GFP fluorescence, 18 h, TGF-beta stimulated, 500 pg/mL final; series mostly up to 46.1 µM
Procedure, shortened: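 Inhibition of TGF-beta-driven CAGA-GFP reporter expression in HEPG2 cells is measured by cellular GFP fluorescence after 18 h stimulation with 500 pg/mL recombinant TGF-beta in 1% FBS medium at 37 degrees C.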
Potency is read from the fitted curve at half-maximal effect; tags tell the direction and shape of the fitted curve.

SMILES | Potency
COc1cccc(/C=N/NC(=O)NC23CC4CC(CC(C4)C2)C3)c1O | inconclusive: 35.5 µM [inhibitor, single point]
CC1(C)N=C(N)N=C(N)N1c1ccc(Oc2ccc(Cl)cc2)c(Cl)c1 | inconclusive: 15.8 µM [inhibitor, partial curve, poor fit]
CCC(Oc1ccccc1)C(=O)Nc1ncc([N+](=O)[O-])s1 (stereo unspecified) | inactive
COc1cccc(OCc2nc3ccccc3n2CCOc2ccccc2C)c1 | inconclusive: 17.8 µM [inhibitor, single point]
COC(=O)[C@@]12CCCN1[C@H](c1ccc(-c3ccc(Cl)c(Cl)c3)c(OC)c1)[C@H]1C(=O)N(C)C(=O)[C@H]12 | inconclusive: 22.4 µM [inhibitor, single point]
NC(=O)c1c(NC(=O)c2ccc(F)cc2Cl)sc2c1CCC2 | inconclusive: 25.1 µM [inhibitor, single point]
O=c1c2ccccc2oc2cc(C#CC3(O)CCCCC3)ccc12 | inactive
COc1ccc(CSc2nnnn2C)cc1F | inconclusive: 3.55 µM [inhibitor, single point]
CCCC(=O)NC(c1ccc(OC)cc1)c1ccc2cccnc2c1O (stereo unspecified) | inconclusive: 10 µM [inhibitor, partial curve, poor fit]
CCOC(=O)COc1cc(N2C(=O)CSCC2=O)c(Cl)cc1Cl | inconclusive: 17.8 µM [inhibitor, partial curve, poor fit]
O=C(CSC(=S)N1CCCC1)N(Cc1nnc(-c2ccccc2Cl)o1)C1CC1 | inconclusive: 3.16 µM [inhibitor, single point]
CCOc1ccc(Cl)cc1S(=O)(=O)N1CCC(C(=O)NCc2ccco2)CC1 | inactive
Cc1ccc(C)c(NC(=O)NNC(=O)c2cc3occc3[nH]2)c1 | inactive
O=C(Nc1ccc(N2CCOCC2)c(S(=O)(=O)Nc2ccc(Cl)cc2)c1)c1cnccn1 | inactive
CCOc1ccccc1N1CCN(CC(O)COC2CCCc3ccccc32)CC1 (stereo unspecified) | inactive
CCCOc1cccc(-c2cc(-c3n[nH]c(=S)n3CC)c3ccccc3n2)c1 | inconclusive: 10 µM [inhibitor, partial curve, poor fit]
CCOc1ccc(S(=O)(=O)NCc2ccc3c(c2)OCO3)cc1 | inactive
O=S(=O)(c1cc(Cl)c(Cl)cc1Cl)N1CCN2CCCC2C1 (stereo unspecified) | inconclusive: 35.5 µM [inhibitor, single point]
COC(=O)c1ccc(Oc2nc(N3CCCCC3)nc(N3CCOCC3)n2)cc1 | inactive
Cn1c(SCC(=O)NCc2cccs2)nnc1-c1ccco1 | inconclusive: 3.55 µM [inhibitor, single point]
CCOC(=O)c1c(C)oc2nc(C)nc(NCc3ccccc3OCC)c12 | inactive
CN(Cc1ccco1)Cc1ccc(O)c2ncccc12 | inconclusive: 12.6 µM [inhibitor, single point]
C=CC(C)(C)c1c2occc2c(O)c2ccc(=O)oc12 | inconclusive: 11.2 µM [inhibitor, single point]

SMILES | Potency
Cc1ccc(S(=O)(=O)N(C)c2ccc(OCc3cccc(C)c3)cc2)cc1 | inactive
COc1ccc(-c2[nH]nc3oc(=O)c(CCO)c(C)c23)cc1 | inactive
O=C(COc1ccccc1-c1nc(-c2ccccc2)no1)Nc1ccccc1[N+](=O)[O-] | inactive
CC(C)Cc1ccc(C(=O)NCc2ccc3c(c2)OCO3)o1 | inconclusive: 35.5 µM [inhibitor, single point]
Cc1ccc(S(=O)(=O)N2CCC(c3ccncc3)CC2)c(C)c1 | inconclusive: 3.55 µM [inhibitor, partial curve]
O=C1CC(c2ccccc2Cl)=NN(c2ncnc3ccccc23)C1=O | inactive
CCOC(=O)C1=C(CS(=O)(=O)c2ccc(F)cc2)NC(=O)NC1c1ccc(OCC)c(OC)c1 (stereo unspecified) | inconclusive: 4.47 µM [inhibitor, single point]
CC(C)CCNC(=O)[C@@H](c1ccccc1)N1Cc2ccccc2C1=O | inactive
COc1ccc(C(=O)OC/C(O)=C(\C#N)c2nc3ccccc3[nH]2)cc1S(=O)(=O)N1CCOCC1 | inactive
Cc1onc(-c2c(F)cccc2Cl)c1C(=O)Nc1cc(S(=O)(=O)N2CCCCC2)ccc1O | inconclusive: 22.4 µM [inhibitor, single point]
CCc1ccccc1NCC(=O)Nc1ccc(Cl)c(C(F)(F)F)c1 | inconclusive: 12.6 µM [inhibitor, partial curve, poor fit]
COc1ccc(N2CCN(C(=O)COC(=O)CNC(=O)c3ccc(C)cc3)CC2)cc1 | inactive
COc1ccc(/C=N/NC(=O)c2c(C)nc3ccccn23)cc1[N+](=O)[O-] | inactive
COc1ccccc1C(C)NC(=O)CCC(=O)N1CCN(S(=O)(=O)c2ccc(Cl)cc2)CC1 (stereo unspecified) | inconclusive: 14.1 µM [inhibitor, single point]
O=C(Cn1ccc2cc(S(=O)(=O)N3CCCCC3)ccc21)NCCc1ccc(Cl)cc1 | inconclusive: 11.2 µM [inhibitor, partial curve]
O=[N+]([O-])/C(C(=C(Cl)Cl)N1CCOCC1)=C1\NCCO1 | inconclusive: 0.447 µM [inhibitor, full curve, poor fit]
O=c1[nH][nH]c(C(F)(F)F)c1C=NCc1ccc(Cl)cc1 | inactive
O=C(c1cc2c(s1)CCC2)N1C(=O)c2ccccc2S1(=O)=O | inconclusive: 5.62 µM [inhibitor, single point]
COc1ccc(CCNC(=O)CN(c2cc(C(F)(F)F)ccc2Cl)S(C)(=O)=O)cc1 | inactive
C[C@@H]1C=C(C(=O)NCc2nc3ccccc3[nH]2)O[C@H](OCc2ccc(CO)cc2)C1 | inactive
COCCNC(=O)Cc1c(C)c2cc3c(cc2oc1=O)OC(C)(C)CC3 | inactive
O=C(c1nc2ccc(Cl)cn2c1CN1CCCC(CO)C1)N1CCc2ccccc2C1 (stereo unspecified) | inconclusive: 1.41 µM [inhibitor, partial curve, poor fit]
C[C@@H]1CN([C@H](C)CO)C(=O)c2cc(NC(=O)Nc3ccc(C(F)(F)F)cc3)ccc2O[C@H]1CN(C)Cc1ccc(Cl)c(Cl)c1 | active: 11.2 µM
